Measured values taken from the supplement of paper PMC10441789.
This is one part of the list. Antibody binding of pooled human sera (four to six donors per pool; dilution not stated) to peptides of the Trypanosoma cruzi antigen TSSA on microarrays. Quantile-normalised fluorescence in arbitrary units, mean of duplicate arrays; higher = more binding. No active / inactive call. The uninfected pools are read here as the healthy donors of the same country. The strongest signals lie near the top of the scale (about 60,000).

Assays:
Assay in all cases: antibody binding signal (normalised fluorescence) (arbitrary fluorescence units); higher = stronger serum antibody binding to peptide
[1] = system: pooled sera of chronic Chagas disease patients, Argentina
Description: (§1)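 Microarray of 15-residue peptides over residues 30-55 of Trypanosoma cruzi TSSAII, each with 1 to 10 substitutions at naturally variable positions, probed with one serum pool per country.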

[2] = system: pooled sera of chronic Chagas disease patients, Bolivia
Description: as §1

[3] = system: pooled sera of chronic Chagas disease patients, Brazil
Description: as §1

[4] = system: pooled sera of chronic Chagas disease patients, Colombia
Description: as §1

[5] = system: pooled sera of chronic Chagas disease patients, Mexico
Description: as §1

[6] = system: pooled sera of chronic Chagas disease patients, USA
Description: as §1

[7] = system: pooled sera of uninfected people, Argentina
Description: as §1

[8] = system: pooled sera of uninfected people, Bolivia
Description: as §1

[9] = system: pooled sera of uninfected people, Brazil
Description: as §1

[10] = system: pooled sera of uninfected people, Colombia
Description: as §1

[11] = system: pooled sera of uninfected people, Mexico
Description: as §1

[12] = system: pooled sera of uninfected people, USA
Description: as §1

Row | Sequence | antibody binding signal [1] | antibody binding signal [2] | antibody binding signal [3] | antibody binding signal [4] | antibody binding signal [5] | antibody binding signal [6] | antibody binding signal [7] | antibody binding signal [8] | antibody binding signal [9] | antibody binding signal [10] | antibody binding signal [11] | antibody binding signal [12]
1 | KDKKPATGGTPSQPG | 478 | 240 | 687 | 655 | 187 | 508 | 288 | 94.1 | 227 | 119 | 169 | 87.3
2 | KDNKPATGGTPSPPG | 426 | 317 | 530 | 375 | 368 | 420 | 349 | 507 | 228 | 255 | 174 | 120
3 | GKEKKAATGGTPSPP | 3260 | 335 | 358 | 2490 | 3660 | 2560 | 139 | 69.1 | 200 | 445 | 73.5 | 104
4 | GTDNKAATGGAPSPS | 676 | 371 | 31600 | 703 | 669 | 1810 | 282 | 567 | 1690 | 182 | 217 | 120
5 | PSGKDKKTAAGETPS | 4370 | 2190 | 3340 | 7100 | 6470 | 5170 | 214 | 466 | 126 | 526 | 106 | 119
6 | TDNKPAAGGAPSPSG | 1240 | 562 | 3560 | 1440 | 215 | 773 | 198 | 379 | 311 | 280 | 398 | 148
7 | GKDNKPATGGAPSQP | 1200 | 3370 | 20200 | 1060 | 1710 | 2600 | 326 | 996 | 137 | 173 | 167 | 144
8 | KENKPATGGAPSQPG | 503 | 1050 | 24500 | 275 | 724 | 3630 | 350 | 761 | 144 | 120 | 120 | 177
9 | TPPSGKDNKAATGEA | 3260 | 6060 | 3650 | 326 | 14000 | 4950 | 208 | 682 | 258 | 245 | 102 | 99.8
10 | TDNKPAAGGTPSPPG | 1380 | 198 | 1070 | 1020 | 210 | 205 | 98.7 | 583 | 757 | 602 | 365 | 102
11 | TENKAATGGTPSQPG | 29000 | 1180 | 11500 | 1220 | 597 | 1940 | 356 | 155 | 416 | 290 | 1040 | 255
12 | TEKKTATGETPSPPG | 648 | 579 | 1330 | 350 | 433 | 7330 | 267 | 248 | 316 | 145 | 172 | 1400
13 | DNKPAAGEAPSQSGA | 489 | 18400 | 29600 | 344 | 205 | 15400 | 68.8 | 270 | 323 | 98.5 | 198 | 81.6
14 | KKPATGGAPSQSGAS | 530 | 443 | 311 | 371 | 444 | 553 | 347 | 552 | 95 | 103 | 133 | 250
15 | TEKKTAAGETPSQSG | 739 | 574 | 1040 | 467 | 444 | 1540 | 129 | 255 | 288 | 848 | 411 | 225
16 | TDKKTATGETPSPSG | 490 | 705 | 872 | 246 | 295 | 7630 | 252 | 222 | 287 | 119 | 317 | 2600
17 | EKKTAAGETPSQSGA | 725 | 733 | 1530 | 557 | 561 | 3690 | 163 | 1080 | 213 | 1090 | 329 | 1100
18 | GKEKKTATGGTPSQS | 3470 | 291 | 402 | 2380 | 3150 | 2630 | 229 | 98.4 | 151 | 131 | 133 | 93.3
19 | PSGKDKKTATGGAPS | 2560 | 369 | 1920 | 3890 | 3250 | 3520 | 219 | 226 | 98.3 | 106 | 104 | 104
20 | GKENKPATGETPSPS | 38400 | 15400 | 35400 | 8100 | 9650 | 32300 | 759 | 627 | 241 | 250 | 2060 | 2150
21 | DKKPATGEAPSQPGA | 48300 | 43900 | 47000 | 221 | 439 | 43700 | 941 | 695 | 304 | 298 | 286 | 206
22 | KTATGEAPSPPGASS | 11900 | 29700 | 12900 | 288 | 790 | 15700 | 311 | 148 | 268 | 153 | 117 | 182
23 | SGKEKKPAAGEAPSQ | 14200 | 4390 | 12400 | 5430 | 11900 | 14100 | 269 | 332 | 90.4 | 130 | 93.9 | 296
24 | TEKKAATGEAPSPPG | 19900 | 31000 | 26100 | 404 | 576 | 21200 | 524 | 130 | 205 | 587 | 161 | 260
25 | GTENKPATGEAPSPS | 47100 | 46700 | 49100 | 1700 | 3350 | 39800 | 1030 | 1430 | 475 | 173 | 226 | 151

Row | Sequence | antibody binding signal [1] | antibody binding signal [2] | antibody binding signal [3] | antibody binding signal [4] | antibody binding signal [5] | antibody binding signal [6] | antibody binding signal [7] | antibody binding signal [8] | antibody binding signal [9] | antibody binding signal [10] | antibody binding signal [11] | antibody binding signal [12]
26 | PPSGTDKKAAAGETP | 10200 | 10700 | 25900 | 3430 | 31400 | 2320 | 399 | 530 | 268 | 690 | 2700 | 202
27 | GTEKKAATGGAPSQS | 1070 | 203 | 704 | 835 | 1700 | 1610 | 469 | 956 | 116 | 781 | 113 | 165
28 | KTATGETPSQPGASS | 2130 | 4060 | 33500 | 253 | 303 | 4890 | 182 | 1600 | 369 | 179 | 226 | 241
29 | GTDNKPATGGAPSPP | 3850 | 17300 | 41200 | 1890 | 490 | 2990 | 343 | 1330 | 583 | 189 | 342 | 182
30 | NKAATGETPSQPGAS | 6220 | 11800 | 43300 | 304 | 219 | 11300 | 578 | 1950 | 595 | 592 | 290 | 1380
31 | ISTPPSGKENKAATG | 13400 | 3250 | 8340 | 818 | 3060 | 2950 | 2480 | 1180 | 159 | 682 | 148 | 603
32 | GKENKAAAGETPSQP | 7040 | 1230 | 33300 | 15100 | 9860 | 21600 | 542 | 191 | 126 | 154 | 129 | 117
33 | SGTENKPAAGEAPSP | 42600 | 18200 | 33300 | 526 | 1020 | 18500 | 792 | 1140 | 203 | 145 | 190 | 122
34 | TDKKAAAGEAPSQPG | 7520 | 15300 | 36300 | 357 | 277 | 11400 | 101 | 202 | 142 | 102 | 126 | 129
35 | PPSGTEKKTAAGGTP | 32900 | 4420 | 12300 | 14200 | 3250 | 3890 | 857 | 375 | 1110 | 211 | 612 | 482
36 | SGTEKKAATGEAPSQ | 21300 | 34200 | 30000 | 293 | 454 | 25200 | 560 | 528 | 355 | 550 | 155 | 175
37 | TPPSGTDKKPAAGET | 29300 | 36400 | 44700 | 5780 | 46800 | 4100 | 760 | 440 | 501 | 532 | 4840 | 407
38 | DKKPAAGGAPSQPGA | 849 | 1070 | 7160 | 4520 | 329 | 544 | 228 | 215 | 337 | 126 | 159 | 248
39 | DKKTATGGAPSPSGA | 1250 | 217 | 585 | 3800 | 753 | 970 | 421 | 262 | 108 | 91.1 | 398 | 180
40 | GKDNKAATGETPSQP | 6180 | 1230 | 37700 | 4220 | 4460 | 12300 | 216 | 354 | 169 | 370 | 111 | 124
41 | KTATGGTPSQSGASS | 526 | 381 | 1200 | 522 | 436 | 181 | 571 | 173 | 146 | 112 | 368 | 254
42 | TPPSGTDNKAATGGT | 33600 | 44300 | 51100 | 1220 | 7820 | 11200 | 899 | 538 | 2330 | 275 | 276 | 286
43 | GKDKKAAAGGTPSPS | 264 | 242 | 168 | 1500 | 562 | 1270 | 93.8 | 66.3 | 484 | 127 | 66.4 | 79.6
44 | GTDKKTAAGGAPSPS | 176 | 357 | 204 | 6320 | 748 | 648 | 200 | 214 | 143 | 184 | 189 | 118
45 | NKPATGEAPSPSGAS | 26200 | 51000 | 48400 | 259 | 338 | 40300 | 889 | 1350 | 963 | 304 | 250 | 1010
46 | TENKAATGETPSPPG | 24100 | 5000 | 21500 | 230 | 210 | 9910 | 137 | 211 | 173 | 131 | 151 | 1960
47 | TEKKPATGEAPSQPG | 50100 | 51700 | 52300 | 389 | 396 | 41200 | 928 | 677 | 491 | 249 | 270 | 517
48 | EKKAAAGGTPSPSGA | 1260 | 185 | 255 | 6390 | 551 | 1880 | 204 | 843 | 1820 | 177 | 128 | 805
49 | KEKKTATGETPSQSG | 449 | 320 | 737 | 269 | 241 | 4580 | 143 | 107 | 103 | 78.2 | 98.2 | 117
50 | TEKKTAAGGAPSPSG | 549 | 505 | 252 | 8220 | 1080 | 1530 | 209 | 196 | 208 | 281 | 480 | 283
